PubChem BioAssay AID1030 (National Center for Advancing Translational Sciences (NCATS), 2008)
Hit rate of the full screen: of about 220,000 compounds, about 16,000 (7.3%) were called active. Inconclusive means that the source gave no clear call. Such entries were picked first, then a sample of the others. The call rests on the fitted dose curve; in most records, active means well fitted inhibition curve with a large enough effect (not every such curve was filed as active); inconclusive means small, poorly fitted or top-dose-only effect, or another doubt; inactive means no such curve, though single readings can be large or run the other way. No potency is given beside an inconclusive call; the fits are too rough.

Biological target: Aldehyde dehydrogenase 1A1 (Homo sapiens) (UniProt P00352)
Experiment: qHTS Assay for Inhibitors of Aldehyde Dehydrogenase 1 (ALDH1A1)
Conditions: Purified ALDH1A1, NADH fluorescence, propionaldehyde substrate; series mostly up to 75.3 µM
Potency means the concentration at half of the fitted maximal effect; tags describe the fitted curve by direction and shape.

Sequence of UniProt P00352 (P00352 whole entry, looked up): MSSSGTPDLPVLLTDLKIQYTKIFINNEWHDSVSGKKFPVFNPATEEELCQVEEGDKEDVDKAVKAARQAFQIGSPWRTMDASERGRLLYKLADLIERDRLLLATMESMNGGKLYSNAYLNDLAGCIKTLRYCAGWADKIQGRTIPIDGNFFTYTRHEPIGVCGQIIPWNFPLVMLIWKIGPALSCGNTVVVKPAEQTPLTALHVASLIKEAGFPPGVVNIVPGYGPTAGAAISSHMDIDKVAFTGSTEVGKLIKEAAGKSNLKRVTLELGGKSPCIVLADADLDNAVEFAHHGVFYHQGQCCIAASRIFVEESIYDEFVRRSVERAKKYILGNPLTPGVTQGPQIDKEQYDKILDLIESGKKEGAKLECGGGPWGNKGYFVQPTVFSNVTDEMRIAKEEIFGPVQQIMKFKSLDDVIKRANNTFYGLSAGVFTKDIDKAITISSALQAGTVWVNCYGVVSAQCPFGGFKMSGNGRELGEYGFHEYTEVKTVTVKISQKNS

| Compound | Potency |
| --- | --- |
| O=S1(=O)CC=C(CSC(=S)NC2CCS(=O)(=O)C2)C1 (stereo not drawn) | active: 18.9 µM |
| Cc1[nH]c2ccccc2c1C(=O)C(C)OC(=O)c1ccc([N+](=O)[O-])o1 (stereo not drawn) | inconclusive [inhibitor, single point] |
| O=C1C2C3C=CC(CO)(O3)C2C(=O)N1c1ccccc1-c1ccccc1 (stereo not drawn) | active: 1.12 µM |
| CC1CC(=O)N(Cc2ccccc2)c2ccccc2N1C=O (stereo not drawn) | inactive |
| CCOC(=O)c1ccc(NS(=O)(=O)c2ccc3[nH]c(=O)[nH]c3c2)cc1 | active: 15.8 µM |
| CCCn1c(C)cc(C(=O)COC(=O)c2nccnc2N)c1C | inactive |
| CCOC(=O)CC1=C(C(=O)OCC)C(c2ccncc2)C(C#N)=C(N)O1 (stereo not drawn) | inconclusive [inhibitor, partial curve] |
| O=C(c1ccc(Cl)cc1)c1ccc(OCC(=O)N2CCOCC2)cc1 | inconclusive [inhibitor, partial curve] |
| O=C(CNc1ccc2c(c1)OCO2)N/N=C\c1cn(Cc2ccccc2)c2ccccc12 | active: 4.47 µM |
| COc1ccc(NC(=O)[C@@H](NC(=O)c2ccccc2)C(C)C)cc1S(=O)(=O)N1CCCCC1 | inactive |
| O=C(CSc1nnc2ccccn12)NCc1ccco1 | inconclusive [inhibitor, single point] |
| CO[C@@H]1C=CO[C@]2(C)Oc3c(C)c(O)c4c(O)c(c(C=NN5CCN(C)CC5)c(O)c4c3C2=O)NC(=O)C(C)=CC=C[C@H](C)[C@H](O)[C@H](C)[C@H](O)[C@H](C)[C@H](OC(C)=O)[C@H]1C | inactive |
| Oc1ccccc1N=Cc1c(O)ccc2ccccc12 | inconclusive [inhibitor, single point] |
| O=C(c1ccco1)N1CCN(S(=O)(=O)/C=C/c2ccccc2)CC1 | inconclusive [inhibitor, partial curve] |
| CN(Cc1ccc(Cl)cc1)C(=O)CCl | active: 0.501 µM |
| O=C(CCc1ccc(S(=O)(=O)N2CCCCC2)cc1)c1nnc(-c2ccccc2)o1 | inconclusive [inhibitor, partial curve] |
| Cc1ccc2c(c1)C(c1ccc(F)cc1)N(C(=O)c1cc3ccccc3oc1=O)CC(=O)N2 (stereo not drawn) | inconclusive [inhibitor, single point] |
| CCN(CC)CCNC(=O)C(=O)NCC1OCCN1C(=O)c1ccc2c(c1)OCO2 (stereo not drawn) | inactive |
| Cc1nn(-c2ccccc2)c(C)c1/C=N/NC(=O)c1cc(-c2cccc3ccccc23)n[nH]1 | inactive |
| CC(C)Oc1ccc(C(=O)NC2CCS(=O)(=O)C2)cc1 (stereo not drawn) | inconclusive [inhibitor, single point] |
| COc1ccc(C2(O)CCN(CC(=O)Nc3nc(-c4ccccc4)cs3)CC2)cc1 | inactive |
| COc1ccc(CNc2ncncc2-c2ccoc2)c(OC)c1 | inconclusive [inhibitor, single point] |
| N#Cc1ccc(C(c2nnnn2C2CCCC2)N2CCC(Cc3ccccc3)CC2)cc1 (stereo not drawn) | inconclusive [inhibitor, partial curve] |
| Cc1nc2ccc(NC(=S)N3CCOCC3)cc2nc1C | inconclusive [inhibitor, single point] |

| Compound | Potency |
| --- | --- |
| CNC(=S)NNC(=O)c1cn(C)nc1C | inactive |
| O=C(c1ccco1)N1CCC2(CC1)CN(c1ncccn1)C2 | inconclusive [inhibitor, partial curve] |
| COc1cc(NS(=O)(=O)c2ccc(C)c(C)c2)c(OC)cc1Cl | inconclusive [inhibitor, single point] |
| CC1(C)C(=O)OC(C(=O)c2ccccc2)C2(CCCCC2)C1=O (stereo not drawn) | inactive |
| Cc1ccc(C(=O)N2CCN(C(=O)CN3CCOCC3)C2)cc1 | inconclusive [inhibitor, single point] |
| O=C(CCl)N=c1sccn1Cc1cccc2ccccc12 | active: 20 µM |
| Cc1cc2cc(CNC(=O)CCC(=O)O)ccc2n1C | inconclusive [inhibitor, partial curve] |
| Cc1nn2c(=O)cc(COC(=O)c3ccc(S(=O)(=O)N4CCCCC4)cc3)nc2s1 | inactive |
| CCn1c(=O)cc(SCC(=O)NCc2ccccn2)c2ccccc21 | inactive |
| CC1(C)Cc2c(c(=S)nc(-c3ccccc3)n2CCO)CO1 | active: 25.1 µM |
| NCc1oc(-c2ccccc2)cc1C(=O)O | inconclusive [inhibitor, single point] |
| Cc1ccc(C2CC(c3cccs3)=NN2C(=O)c2ccco2)o1 (stereo not drawn) | inconclusive [inhibitor, single point] |
| CC(C)OCCCNC(=O)NC12CC3CC(CC(C3)C1)C2 | inactive |
| CCC(=O)Nc1cccc(NC(=S)NC(=O)c2ccccc2Cl)c1 | inactive |
| COC(C(=O)Nc1ccc(Br)cc1F)c1ccccc1 (stereo not drawn) | active: 10 µM |
| COc1ccc2c(c1)C(=O)/C(=C/C=C/c1ccccc1)CC2 | inconclusive [inhibitor, single point] |
| Cc1cccc(CN2CCN(Cc3nc4c(s3)CCCC4)CC2CCO)n1 (stereo not drawn) | inactive |
| COc1cccc(-c2csc(N3CCN(C(=O)Nc4ccc(F)cc4)CC3)n2)c1 | inconclusive [inhibitor, single point] |
| COc1cccc(C2=CC(c3ccccc3)n3ncnc3N2)c1 (stereo not drawn) | inconclusive [inhibitor, partial curve] |
| CCN(CC)c1ccc(C=C2C(=O)OC3(CCCCC3)OC2=O)cc1 | active: 0.178 µM |
| COc1ccc(/C=C(/C(=O)Nc2ccccc2C(=O)N2CCCC2)c2ccccc2)cc1 | inconclusive [inhibitor, partial curve] |
| COc1ccc(-n2cc(CN(C)C(C)c3ccncn3)c(-c3cccc(F)c3)n2)cc1 (stereo not drawn) | active: 25.1 µM |
| COc1cccc(C(=O)Nc2cc3c(cc2Cl)OCCCO3)c1 | inconclusive [inhibitor, single point] |
| CCCCCCCOc1ccc(-c2ccc(C#N)cn2)cc1 | inconclusive [inhibitor, partial curve] |
